Reference: PubChem BioAssay AID463173 (ICCB-Longwood Screening Facility, Harvard Medical School, 2010)
Out of some 52,000 compounds screened, about 4,300 (8.3%) were called active. Cut-off read from the data, not from the text of the source: active = survival mostly below about 52% (no sharp cut-off); inactive = mostly above about 56%. Some of the results follow.

Test system: DeltatarO mutant
Assay: growth inhibition of S. aureus wild type versus tarO mutant, primary screen, teichoic acid synthesis inhibitors, RN4220, OD600 (AID 463173)
Conditions: OD600, 18 h, stronger effect = lower value, screened at 18.75 µg/mL (by protocol)

| Structure (SMILES) | survival |
| --- | --- |
| COc1ccc(-c2cc(C(F)(F)F)n3nc(C(=O)Nc4sc5c(c4C#N)CCC(C)C5)cc3n2)cc1OC (stereo unspecified) | inactive: 99% |
| O=C1CC(N2CCC(c3nc4ccccc4[nH]3)CC2)C(=O)N1 (stereo unspecified) | inactive: 84% |
| CCOC(=O)C1CCN(C(=O)c2cc3ccc4ccc(C)[nH]c4c3n2)CC1 | inactive: 67% |
| CCC(C)NC(=O)c1[nH]c2cc(OC)ccc2c1Sc1ccc(C)cc1 (stereo unspecified) | inactive: 82% |
| CC(CNC(=O)CN1C(=O)COc2ccc(S(=O)(=O)N3CCCCC3)cc21)c1ccccc1 (stereo unspecified) | inactive: 85% |
| CC(/C=C/c1ccco1)=N/NC(=O)Cc1cccs1 | inactive: 97% |
| Cc1ccc(-n2ncc(C(=O)NCCCN3CCc4ccccc4C3)c2C2CCN(C(=O)OC(C)(C)C)CC2)cc1C | inactive: 73% |
| Cc1ccccc1C(=O)Nc1ccc(C(=O)OCc2cc(=O)n3nc(C4CC4)sc3n2)cc1 | inactive: 79% |
| O=C(Nc1ccc(Cl)cc1)C1CCN(S(=O)(=O)c2ccc(Br)s2)CC1 | active: 47% |
| CN(CC(=O)NCc1ccccn1)S(=O)(=O)c1ccccc1 | inactive: 96% |
| CC1CN(C(=O)Nc2ccc(C(=O)NCCc3ccccc3Cl)cc2)c2ccccc2S1 (stereo unspecified) | inactive: 61% |
| CCC1CN(C(=O)N2CCC(C(=O)N(C)Cc3ccccc3)CC2)c2ccccc2O1 (stereo unspecified) | inactive: 72% |
| Cc1ccc(CNC(=O)c2cc(S(=O)(=O)N3CCCCC3)cn2C)cc1 | inactive: 69% |
| Cc1ccc2nc(CN3CCN(C(=O)Nc4cccc(C)c4C)CC3)oc2c1 | inactive: 83% |
| COc1ccc(NC(=O)CN2C(=O)CC(c3ccco3)Sc3ccccc32)cc1OC (stereo unspecified) | inactive: 83% |
| COC(=O)c1scc(-c2ccc(C)cc2)c1S(=O)(=O)Nc1c(C)cc(C)cc1C | inactive: 124% |
| Cc1nc2c(-c3ccccc3)c(C)[nH]n2c(=O)c1Cc1ccc(C(C)C)cc1 | active: 11% |
| CCS(=O)(=O)c1ncc(N(Cc2cccc(F)c2)Cc2ccco2)c(C(=O)Nc2ccccc2Cl)n1 | inactive: 64% |
| CCOC(=O)c1cccc(NC(=O)c2cnn(-c3ccccc3)c2-n2cccc2)c1 | inactive: 80% |
| O=C(CSCc1cc(=O)c2ccccc2[nH]1)Nc1cccc(C(F)(F)F)c1 | inactive: 123% |
| CC(=O)c1ccc(N2CCN(S(=O)(=O)c3ccc4[nH]c5c(c4c3)CCCCC5)CC2)cc1 | inactive: 91% |
| CC(=O)N1c2ccccc2C(=O)C1N1CCN(c2cc(Cl)ccc2C)CC1 (stereo unspecified) | inactive: 90% |

| Structure (SMILES) | survival |
| --- | --- |
| CCC1CN(C(=O)Nc2ccccc2C(F)(F)F)c2ccccc2S1 (stereo unspecified) | inactive: 116% |
| O=C(CSc1nnnn1-c1ccc2c(c1)OCCO2)c1ccc2c(c1)OCCO2 | inactive: 68% |
| CCCCS(=O)CC(O)CSc1nc(-c2ccc(OC)cc2)cc(-c2ccccc2)c1C#N (stereo unspecified) | inactive: 51% |
| Cc1ccc(/C=C/c2onc(C)c2S(=O)(=O)N2CCC(C(=O)NCc3ccc(N(C)C)cc3)CC2)cc1 | inactive: 67% |
| COc1ccc(NC(=O)CN(c2ccc(C)cc2)S(=O)(=O)c2cccs2)cc1OC | inactive: 97% |
| CCC(Sc1nnc(-c2ccc(OC)cc2)c(-c2ccc(OC)cc2)n1)C(=O)Nc1cccc(OC)c1 (stereo unspecified) | inactive: 94% |
| Fc1ccccc1N1CCN(c2c3c(nc4nncn24)CCC3)CC1 | inactive: 81% |
| Cn1ncc2c(N3CCN(c4ccccc4Cl)CC3)ncnc21 | inactive: 122% |
| CCOc1ccccc1NC(=O)CCNS(=O)(=O)c1ccc2c(c1)CCN2C(=O)C1CC1 | inactive: 81% |
| Cc1cccc(C(=O)Nc2nnc(SCc3cc(=O)n4cccc(C)c4n3)s2)c1 | inactive: 79% |
| O=C(Cc1ccc(Cl)cc1)NCC(c1cccs1)S(=O)(=O)c1ccc(Cl)cc1 (stereo unspecified) | inactive: 85% |
| O=C(CSc1nnc(-c2ccccc2F)o1)N1CCc2ccccc21 | inactive: 100% |
| COc1ccc(C(=O)N/C(=C\c2cn(S(=O)(=O)N(C)C)c3ccccc23)C(=O)NCCCn2ccnc2)cc1 | inactive: 85% |
| CN(Cc1ccccc1)C(=O)C1CCN(Cc2cc3ccccc3n2Cc2ccccc2)CC1 | inactive: 79% |
| COc1ccccc1NC(=O)c1sc2nc(-c3cc4ccccc4oc3=O)[nH]c(=O)c2c1C | inactive: 106% |
| Cc1cc(C)cc(NC(=O)c2cccc(N3CCCS3(=O)=O)c2)c1 | inactive: 101% |
| O=C(CSc1n[nH]c(-c2ccccc2)n1)c1cccs1 | inactive: 81% |
| C=CCn1c(N2CCC(C(N)=O)CC2)nc2c1c(=O)n(C)c(=O)n2C | inactive: 94% |
| O=C(Nc1ccc2oc(-c3cccc4c(Br)cccc34)nc2c1)c1ccc(F)cc1 | inactive: 80% |
| Cc1ccc(C(C(=O)NC2CCCCC2)N(C(=O)C2COc3ccccc3O2)c2ccc3c(c2)OCO3)o1 (stereo unspecified) | inactive: 77% |
| CCc1ccc2[nH]c(=O)c(CN(CCO)C(=S)NCc3ccco3)cc2c1 | inactive: 88% |
| CCCCN(C)CCNC(=O)c1ccc2c(=O)n(CCc3ccccc3)c(=O)[nH]c2c1 | inactive: 77% |

| Structure (SMILES) | survival |
| --- | --- |
| CCc1ccc(NC(=O)C(NS(=O)(=O)c2cccs2)C(C)C)cc1 (stereo unspecified) | active: 55% |
| Cn1c(=O)c2c(-c3ccccc3)n3c(c2n(C)c1=O)C(c1ccccc1[N+](=O)[O-])Nc1ccccc1-3 (stereo unspecified) | inactive: 79% |
| CCOC(=O)c1sc(N(C)C(C)=O)nc1C | inactive: 103% |
| Cc1ccc(-c2nc3nc(C)cc(N4CCN(c5cc(Cl)ccc5C)CC4)n3n2)cc1 | inactive: 86% |
| COc1ccc(-c2cc(C(=O)Oc3ccccc3)c3cc(C)ccc3n2)cc1 | active: 9% |
| CCn1c(=O)n(-c2ccc(C)c(F)c2)c(=O)c2sc3ccccc3c21 | inactive: 76% |
| COc1cccc(-n2c(SCC(=O)Nc3cc(C)ccc3C)nc3c(oc4ccccc43)c2=O)c1 | inactive: 75% |
| CCOCCCNC(=O)c1ccc2nc(CCc3ccccc3)oc2c1 | inactive: 58% |
| COc1ccc(C2=NC3(CCCCC3)N(CC(=O)Nc3ccc(C(C)C)cc3)C2=O)cc1 | inactive: 78% |
| CCOC(=O)c1oc2ccc(S(=O)(=O)n3nc(-c4ccccc4OC)cc3N)cc2c1C | inactive: 67% |
| O=C(COC(=O)c1cc(-c2cccs2)nc2ccccc12)c1ccccc1 | inactive: 45% |
| CCCN(Cc1cccs1)C(=O)Nc1cc(Cl)c(OC)cc1OC | inactive: 62% |
| CCCN(CCC)CCCNC(=O)Cn1cnc2sc(C)c(S(=O)(=O)N3CCCCC3)c2c1=O | inactive: 81% |
| O=C(c1ccc2c(c1)N(Cc1ccccc1F)C(=O)c1ccccc1S2(=O)=O)N1CCOCC1 | inactive: 89% |
| CCc1ccccc1NC(=O)CCn1nc(C)c2c(C)n(-c3ccccc3)nc2c1=O | inactive: 69% |
| COc1cccc(C2CC(=O)Nc3cc4c(cc32)OCCO4)c1OC (stereo unspecified) | inactive: 72% |
| CCOC(=O)c1ccccc1NC(=O)Cn1ncc2c([nH]c3ccccc32)c1=O | inactive: 94% |
| Cc1ccccc1Cn1c(SCc2ccc(C(=O)NC(C)c3ccccc3)cc2)nc2ccncc21 (stereo unspecified) | inactive: 83% |
| O=C(NCCc1cccs1)c1ccc(Cn2c(SCc3ccc(F)cc3)nc3cccnc32)cc1 | inactive: 71% |
| CC1CCN(c2ncnc3c2cnn3-c2ccc(F)cc2)CC1 | inactive: 70% |
| Fc1ccc(NCc2cccn2-c2nnc(N3CCOCC3)s2)cc1 | inactive: 67% |
| CCc1ccc(-n2c(=O)c3c4c(sc3n(CC(=O)NCCCOC)c2=O)CCCC4)cc1 | inactive: 124% |

| Structure (SMILES) | survival |
| --- | --- |
| O=c1[nH]c2ccc(N=Cc3ccccc3C(F)(F)F)cc2[nH]1 | active: 71% |
| COc1ccc(C(=O)CN2CCN(S(=O)(=O)c3ccc(C(C)C)cc3)CC2)cc1 | inactive: 81% |
| COc1cccc(CN2CCc3nc(Nc4ccc5c(c4)OCCO5)ncc3C2)c1 | inactive: 102% |
| Cc1ccc2nc(N(Cc3cccnc3)C(=O)Cc3ccccc3)sc2c1 | inactive: 70% |
| COC(=O)C1=C(c2ccccc2)c2ccccc2S(=O)(=O)N1CC(=O)Nc1cccc(C(C)=O)c1 | inactive: 50% |
| CC1CCN(C(=O)c2ccc3nc(N4C(=O)CCC4=O)sc3c2)CC1 | inactive: 95% |
| COc1cccc(NC(=O)c2sc3nc(C)c(C(=O)Nc4ccc(C)cc4C)c(-c4ccccc4Cl)c3c2N)c1 | inactive: 101% |
| CCc1ccc(-c2nc(CN3CCC(C(=O)NCCc4ccc(Cl)cc4)CC3)c(C)o2)cc1 | inactive: 77% |
| CCOc1ccc(-n2c(-c3ccc(C)cc3)nc3c(cnn3-c3ccccc3)c2=O)cc1 | active: 42% |
| CCN(CC)CCC(=O)c1ccc(OC(C)C)cc1 | inactive: 92% |
| CCOC(=O)C1CCC(CN(Cc2ccccc2)S(=O)(=O)c2ccc(Cl)cc2)CC1 (stereo unspecified) | inactive: 70% |
| Cc1ccc(NC(=O)CCn2c(=O)c3cccn3c3ccccc32)c(Cl)c1 | inactive: 57% |
| COc1ccc(CCNC(=O)CCc2c(C)nc3c(c(C)nn3-c3ccc(C)c(C)c3)c2C)c(OC)c1OC | inactive: 64% |
| CCOC(=O)c1c(S(=O)(=O)N2CCC(C(=O)Nc3ccccc3OC)CC2)c(C)n(CC)c1C | inactive: 80% |
| O=S(=O)(c1ccc(Br)cc1)c1nc(-c2ccco2)oc1SCc1ccccc1Cl | inactive: 149% |
| CCCCOc1ccc(CNC(=O)CN2CCSc3ccccc32)cc1 | inactive: 92% |
| CCN(CC)c1nc(OCC(F)(F)F)nc(N(c2ccccc2)c2ccccc2)n1 | inactive: 76% |
| COc1cccc(CNC(=O)CCn2c(=O)c3cccn3c3ccc(F)cc32)c1OC | inactive: 59% |
| COc1ccc(-n2nc(C(=O)N(C)c3cccc(C(F)(F)F)c3)c3c4ccccc4n(C)c3c2=O)cc1 | inactive: 113% |
| CCC(C(=O)N1CCN(c2cccc(C)c2C)CC1)n1nc(C)c2sc3ccccc3c2c1=O (stereo unspecified) | inactive: 64% |
